Measurements reported in the supplement of paper PMC9446081.
The whole screen tested about 39,000 compounds, of which about 220 (0.56%) showed activity. The list shows a part of the results.

System: Escherichia coli K-12 BW25113
Assay: relative growth (OD600 normalised to plate interquartile mean) (fraction); higher = less growth inhibition, active = 0.2 or less
Details: 50 µM; LB; incubation time: overnight (16-24 h)
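Note: static incubation at 37 °C against the wild-type strain, values averaged over two biological replicates.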

Compound	relative growth
CCOC(=O)N(C)C[C@@H]1OCc2cnnn2CCCC(=O)N([C@H](C)CO)C[C@H]1C	inactive: 1.01
C[C@@H]1CCCCO[C@H](CN(C)Cc2ccc(C(=O)O)cc2)[C@H](C)CN([C@H](C)CO)C(=O)c2cc(NS(=O)(=O)c3cccs3)ccc2O1	inactive: 0.995
C[C@@H]1CN([C@@H](C)CO)C(=O)c2cc(NC(=O)NC3CCCCC3)ccc2O[C@@H](C)CCCCO[C@H]1CN(C)C(=O)NC1CCCCC1	inactive: 0.991
COc1ccc(NC(=O)Nc2ccc3c(c2)C(=O)N([C@H](C)CO)C[C@@H](C)[C@@H](CN(C)C(=O)NC2CCCCC2)OCCCC[C@H](C)O3)cc1	inactive: 1.03
Cn1cnc(S(=O)(=O)N2C[C@@H](O)COC[C@@H]3O[C@H](CC(=O)N4CCN(c5ccccc5)CC4)CC[C@H]32)c1	inactive: 1.01
COc1ccc(S(=O)(=O)Nc2ccc3c(c2)CC(=O)N([C@@H](C)CO)C[C@H](C)[C@H](CN(C)Cc2ccc(-c4ccccc4)cc2)O3)cc1	inactive: 1.01
COc1ccc(F)c(C(=O)N2CCN(CCO)[C@@H]3CS(=O)(=O)C[C@@H]32)c1F	inactive: 0.98
Nc1ccc2oc3c(c2c1)CCCC3	inactive: 0.986
COC1=C(OC)C(=O)C(C/C=C(\C)CC/C=C(\C)CC/C=C(\C)CC/C=C(/C)CC/C=C(\C)CC/C=C(\C)CC/C=C(\C)CC/C=C(\C)CC/C=C(\C)CCC=C(C)C)=C(C)C1=O	inactive: 1
COc1ccc([Si](C)(C)[C@@H]2[C@@H](CCn3cc([C@H](O)c4ccccc4)nn3)O[C@]3(C(=O)N(Cc4cccc(N5CCC5=O)c4)c4ccccc43)[C@H]2C)cc1	inactive: 0.92
C[C@@H]1CCCCO[C@@H](CN(C)Cc2ccc(Cl)c(Cl)c2)[C@@H](C)CN([C@@H](C)CO)C(=O)c2cc(NC(=O)Cc3ccccc3)ccc2O1	inactive: 1.02
Brc1cccc2ocnc12	inactive: 1.01
C[C@@H]1CN([C@@H](C)CO)C(=O)c2cc(NC(=O)Nc3ccc4c(c3)OCO4)ccc2O[C@@H]1CN(C)Cc1ccc(Oc2ccccc2)cc1	inactive: 1.01
C[C@@H]1CN([C@H](C)CO)C(=O)c2cc(NC(=O)Cc3ccccc3)ccc2O[C@@H](C)CCCCO[C@H]1CN(C)S(=O)(=O)c1ccc(Cl)cc1	inactive: 1.04
COc1cccc(S(=O)(=O)N2C[C@H](O)COC[C@H]3O[C@@H](CC(=O)N4CCOCC4)CC[C@@H]32)c1	inactive: 0.989
COc1ccc(S(=O)(=O)N(C)C[C@H]2Oc3ccc(NS(C)(=O)=O)cc3CC(=O)N([C@@H](C)CO)C[C@H]2C)cc1	inactive: 0.957
C[C@H](CO)N1C[C@H](C)[C@H](CN(C)CC2CCCCC2)Oc2c(NC(=O)c3ccc(-c4nccs4)cc3)cccc2C1=O	inactive: 0.999
Cc1ccc(S(=O)(=O)Nc2ccc3c(c2)C(=O)N([C@@H](C)CO)C[C@@H](C)[C@H](CN(C)Cc2ccc4c(c2)OCO4)OCCCC[C@H](C)O3)cc1	inactive: 1
C[C@@H]1CCCCO[C@@H](CN(C)Cc2ccc(C(F)(F)F)cc2)[C@@H](C)CN([C@@H](C)CO)C(=O)c2cc(NC(=O)C3CCCCC3)ccc2O1	inactive: 1.01
O=C(CCCCCNC(=O)OCc1ccc(CO[C@@H]2C[C@H](C3CCCCC3)C=C(C(=O)N3CCCCCCC3)O2)cc1)NO	inactive: 0.995

Compound	relative growth
C[C@@H]1CCCCO[C@@H](CN(C)Cc2ccc(C(F)(F)F)cc2)[C@H](C)CN([C@@H](C)CO)C(=O)c2cc(NC(=O)CCC(F)(F)F)ccc2O1	inactive: 1.03
CC1(C)[C@@H](OC(=O)CCC(=O)O)CC[C@@]2(C)[C@H]1CC[C@]1(C)[C@H]2C(=O)C=C2[C@@H]3C[C@@](C)(C(=O)O)CC[C@]3(C)CC[C@]21C	inactive: 0.973
COc1ccc(CN(C)C[C@H]2OCCCC[C@@H](C)Oc3ccc(NS(=O)(=O)c4c(C)noc4C)cc3C(=O)N([C@@H](C)CO)C[C@H]2C)cc1	inactive: 1.01
C[C@H]1CN([C@@H](C)CO)C(=O)c2cc(NC(=O)CCCCCC(=O)Nc3ccccc3N)ccc2O[C@H]1CN(C)S(=O)(=O)c1cn(C)cn1	inactive: 1.01
COc1ccc([Si](C)(C)[C@@H]2[C@@H](CCn3cc([C@H](O)c4ccccc4)nn3)O[C@]3(C(=O)N(Cc4cccc(N5C(=O)c6cccc7cccc5c67)c4)c4ccccc43)[C@H]2C)cc1	inactive: 1.04
COCC(=O)N1C[C@@H](C)[C@H](OC)CN(C)C(=O)c2ccc(NC(=O)c3cc(C)on3)cc2OC[C@@H]1C	inactive: 0.983
COc1ccc(S(=O)(=O)N(C)C[C@H]2OCc3cn(nn3)CCCC(=O)N([C@@H](C)CO)C[C@H]2C)cc1	inactive: 1
Cn1cnc(S(=O)(=O)N2C[C@H](O)COC[C@@H]3O[C@H](CC(=O)NCc4cc(F)cc(F)c4)CC[C@H]32)c1	inactive: 0.996
O=C(C[C@H]1CC[C@H]2[C@@H](COC[C@@H](O)CN2S(=O)(=O)c2ccccc2)O1)NCc1ccc(-c2ccccc2)cc1	inactive: 0.994
O=C(Cc1ccccc1)NCCN1CCOCC1	inactive: 0.996
CCC(=O)N(C)C[C@@H]1Oc2ncc(C#C[C@H](C)O)cc2C(=O)N([C@H](C)CO)C[C@H]1C	inactive: 0.997
C[C@H]1CN([C@@H](C)CO)S(=O)(=O)c2ccc(Br)cc2O[C@@H]1CN(C)S(=O)(=O)c1ccccc1F	inactive: 0.995
C[C@@H]1CN([C@H](C)CO)C(=O)Cc2cc(NS(=O)(=O)c3cn(C)cn3)ccc2O[C@@H]1CN(C)S(=O)(=O)c1ccc(Cl)cc1	inactive: 0.952
C[C@@H]1CN([C@@H](C)CO)C(=O)c2cc(NS(=O)(=O)c3ccc(Cl)cc3)ccc2O[C@@H](C)CCCCO[C@H]1CN(C)Cc1ccccc1	inactive: 1.02
O=C(CSc1nnc(-c2ccccc2)n1C1CCCCC1)Nc1ccc(S(=O)(=O)Nc2ccccn2)cc1	inactive: 0.98
C[C@H]1CCCCO[C@@H](CN(C)C(=O)NC2CCCCC2)[C@@H](C)CN([C@@H](C)CO)C(=O)c2cc(NC(=O)Nc3ccc(F)cc3)ccc2O1	inactive: 1.01
Cc1ccoc1C(=O)NCCN	inactive: 0.961
Nc1ccc(S(N)(=O)=O)cn1	inactive: 0.957
NCC[C@H]1CC[C@H](NC(=O)C2CCCC2)[C@@H](CO)O1	inactive: 0.987
C[C@H](CO)N1C[C@H](C)[C@H](CN(C)C(=O)Nc2ccc3c(c2)OCO3)OCc2cnnn2CCCC1=O	inactive: 1

Compound	relative growth
CCOCCOc1ccccc1C(N)=O	inactive: 1.16
Cc1ccc(S(=O)(=O)N(C)C[C@H]2OCCCC[C@H](C)Oc3ccc(NC(=O)Nc4ccc(C(F)(F)F)cc4)cc3C(=O)N([C@@H](C)CO)C[C@H]2C)cc1	inactive: 1.05
C[C@H]1CN([C@@H](C)CO)C(=O)c2cc(NS(=O)(=O)c3ccccc3)ccc2O[C@H]1CN(C)S(C)(=O)=O	inactive: 0.995
C[C@H]1CN([C@@H](C)CO)S(=O)(=O)c2ccc(-c3cncnc3)cc2O[C@H]1CN(C)C(=O)CN(C)C	inactive: 1
C[C@@H]1CCCCO[C@@H](CN(C)C(=O)Nc2ccc3c(c2)OCO3)[C@@H](C)CN([C@@H](C)CO)C(=O)c2cc(NC(=O)C3CCCCC3)ccc2O1	inactive: 1.03
Cn1cncc1[C@@](N)(c1ccc(Cl)cc1)c1ccc2c(c1)c(-c1cccc(Cl)c1)cc(=O)n2C	inactive: 0.927
C[C@@H]1CCCCO[C@@H](CN(C)Cc2ccc3c(c2)OCO3)[C@H](C)CN([C@H](C)CO)C(=O)c2cc(NC(=O)CCC(F)(F)F)ccc2O1	inactive: 1
CC(C)NC(=O)Nc1ccc2c(c1)C(=O)N([C@H](C)CO)C[C@@H](C)[C@@H](CN(C)C(=O)Nc1ccccc1)OCCCC[C@@H](C)O2	inactive: 0.995
Cc1ccc(S(=O)(=O)N2C[C@@H](O)COC[C@H]3O[C@@H](CC(=O)NCc4ccc(Cl)c(Cl)c4)CC[C@@H]32)cc1	inactive: 1.02
C[C@@H]1CN([C@@H](C)CO)C(=O)c2cc(NC(=O)Nc3ccc(F)cc3)ccc2O[C@@H](C)CCCCO[C@H]1CN(C)C(=O)Nc1cccc2ccccc12	inactive: 1.03
O=C(C[C@H]1C[C@H]2c3cc(NC(=O)c4ccc5c(c4)OCO5)ccc3O[C@H]2[C@H](CO)O1)NCC(F)(F)F	inactive: 1
O=C(O)Cn1c(=O)n(CC(=O)O)c2ccccc21	inactive: 1
O=C(C[C@H]1CC[C@H]2[C@@H](COC[C@@H](O)CN2C(=O)Nc2ccc(Cl)cc2)O1)NC1Cc2ccccc2C1	inactive: 0.972
C[C@@H]1CCCCO[C@H](CN(C)C(=O)C2CCCCC2)[C@@H](C)CN([C@H](C)CO)C(=O)c2cc(NS(=O)(=O)c3ccccc3)ccc2O1	inactive: 1.03
COCC(=O)N1CC(=O)N2[C@H](CO)[C@H](c3ccc(C#Cc4cccnc4)cc3)[C@@H]2C1	inactive: 0.958
C[C@@H]1CCCCO[C@H](CN(C)S(C)(=O)=O)[C@H](C)CN([C@@H](C)CO)C(=O)c2cc(NC(=O)c3ccncc3)ccc2O1	inactive: 0.996
Cc1noc(C)c1NC(=O)Nc1ccc2c(c1)C(=O)N([C@H](C)CO)C[C@H](C)[C@@H](CN(C)Cc1ccc(C(=O)Nc3ccccc3N)cc1)O2	inactive: 0.99
CCCNC(=O)Nc1ccc2c(c1)OC[C@H](C)N(C(=O)C1CCOCC1)C[C@@H](C)[C@@H](OC)CN(C)C2=O	inactive: 1.01
C[C@H](CO)N1C[C@H](C)[C@@H](CN(C)CC2CC2)Oc2ccc(NS(=O)(=O)c3ccc(F)cc3)cc2CC1=O	inactive: 0.988
